Laboratory results: the supplement of paper PMC8007513
Structures can show the parent of a compound that is named as a salt. ± gives the standard error. In all, about 1,300 compounds went through this assay and about 130 (10%) showed an effect of 50% or more. The list shows a part of the results, in another mix than the full data.

System: Trichoderma virens ATCC 9645
Test: growth yield (OD600) with compound + IPBC relative to untreated control; higher = less growth inhibition
Details: compound concentration: 100 uM, IPBC concentration: 200 ng/ml
How it was run: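 Trichoderma virens ATCC 9645 spores from 7-day potato dextrose agar plates were suspended in potato dextrose broth at 15,000 spores ml^−1. Aliquots of 100 μl with library compounds at 100 μM final, with or without a co-applied biocide at 200 ng ml^−1, were grown in 96-well plates at 30 °C. OD600 was read at 40 h and 72 h on a BioTek EL800. Growth is expressed relative to the control without either agent, as means of duplicate screens.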

`CCC(=O)O[C@]1(C(=O)CCl)[C@@H](C)C[C@H]2[C@@H]3CCC4=CC(=O)C=C[C@]4(C)[C@@]3(F)[C@@H](O)C[C@@]21C` [Clobetasol propionate] + CCCCNC(=O)OCC#CI [3-iodo-2-propynyl butylcarbamate (IPBC)] gave a growth yield (40 h) of 109 ± 7.2% and a growth yield (72 h) of 106 ± 4.7%.
`CCCNCC(O)COc1ccccc1C(=O)CCc1ccccc1` (stereo unspecified) [Propafenone hydrochloride] + CCCCNC(=O)OCC#CI [3-iodo-2-propynyl butylcarbamate (IPBC)] gave a growth yield (40 h) of 77.04 ± 0.16% and a growth yield (72 h) of 88.8 ± 2%.
With `NC(=O)C(c1ccccc1)(c1ccccc1)[C@@H]1CCN(CCc2ccc3c(c2)CCO3)C1` [Darifenacin hydrobromide] + CCCCNC(=O)OCC#CI [3-iodo-2-propynyl butylcarbamate (IPBC)] the growth yield (40 h) was 80.4 ± 4.1% and the growth yield (72 h) was 88.9 ± 1.1%.
`COc1ccccc1OCC(O)CN1CCN(CC(=O)Nc2c(C)cccc2C)CC1` (stereo unspecified) [Ranolazine] + CCCCNC(=O)OCC#CI [3-iodo-2-propynyl butylcarbamate (IPBC)] gave a growth yield (40 h) of 89.7 ± 2.4% and a growth yield (72 h) of 94.2 ± 2.7%.
For `COc1cc([C@@H]2c3cc4c(cc3[C@@H](O[C@@H]3O[C@@H]5CO[C@@H](C)O[C@H]5[C@H](O)[C@H]3O)[C@H]3COC(=O)[C@H]23)OCO4)cc(OC)c1O` [Etoposide] + CCCCNC(=O)OCC#CI [3-iodo-2-propynyl butylcarbamate (IPBC)], the growth yield (40 h) was 82.4 ± 7.8% and the growth yield (72 h) was 94.3 ± 2.8%.
`C[C@H]1C[C@@H]2[C@H]([C@@H](O)C[C@@]3(C)[C@H]2CC[C@]3(O)C(=O)CO)[C@@]2(C)C=CC(=O)C=C12` [Methylprednisolone, 6-alpha] + CCCCNC(=O)OCC#CI [3-iodo-2-propynyl butylcarbamate (IPBC)] gave a growth yield (40 h) of 90.4 ± 12% and a growth yield (72 h) of 98.9 ± 9.3%.
Work on `CC(C)NCC(O)c1ccc2ccccc2c1` (stereo unspecified) [Pronethalol hydrochloride] + CCCCNC(=O)OCC#CI [3-iodo-2-propynyl butylcarbamate (IPBC)] yielded a growth yield (40 h) of 92 ± 1.8% and a growth yield (72 h) of 95.3 ± 1.8%.
`Nc1nc2n[nH]nc2c(=O)[nH]1` [Azaguanine-8] + CCCCNC(=O)OCC#CI [3-iodo-2-propynyl butylcarbamate (IPBC)] showed a growth yield (40 h) of 7.47 ± 1.1% and a growth yield (72 h) of 12.2 ± 0.21%.
`CN(C)c1nc(N(C)C)nc(N(C)C)n1` [Altretamine] + CCCCNC(=O)OCC#CI [3-iodo-2-propynyl butylcarbamate (IPBC)] gave a growth yield (40 h) of 81.8 ± 1.1% and a growth yield (72 h) of 88.6 ± 0.94%.
Compound `CN(C)C(=O)Oc1cc(OC(=O)N(C)C)cc(C(O)CNC(C)(C)C)c1` (stereo unspecified) [Bambuterol hydrochloride] + CCCCNC(=O)OCC#CI [3-iodo-2-propynyl butylcarbamate (IPBC)] has a growth yield (40 h) of 96.9 ± 11% and a growth yield (72 h) of 103 ± 5.2%.
Work on `CC[C@H]1OC(=O)[C@H](C)[C@@H](O[C@H]2C[C@@](C)(OC)[C@@H](O)[C@H](C)O2)[C@H](C)[C@@H](O[C@@H]2O[C@H](C)C[C@H](N(C)C)[C@H]2O)[C@](C)(O)C[C@@H](C)[C@@H]2N[C@@H](COCCOC)O[C@H]([C@H]2C)[C@]1(C)O` [Dirithromycin] + CCCCNC(=O)OCC#CI [3-iodo-2-propynyl butylcarbamate (IPBC)] yielded a growth yield (40 h) of 89 ± 9.5% and a growth yield (72 h) of 94.9 ± 6.4%.
Work on `O=C1CC2(CCCC2)CC(=O)N1CCCCN1CCN(c2ncccn2)CC1` [Buspirone hydrochloride] + CCCCNC(=O)OCC#CI [3-iodo-2-propynyl butylcarbamate (IPBC)] yielded a growth yield (40 h) of 106 ± 3.6% and a growth yield (72 h) of 104 ± 1.3%.
For `CCn1cc(C(=O)O)c(=O)c2cc3c(cc21)OCO3` [Oxolinic acid] + CCCCNC(=O)OCC#CI [3-iodo-2-propynyl butylcarbamate (IPBC)], the growth yield (40 h) was 88.2 ± 2.1% and the growth yield (72 h) was 94.8 ± 3.1%.
`C[C@]12CC[C@H](O)C[C@@H]1CC[C@@H]1[C@@H]2CC[C@]2(C)C(=O)CC[C@@H]12` [Epiandrosterone] + CCCCNC(=O)OCC#CI [3-iodo-2-propynyl butylcarbamate (IPBC)] was tested, and the growth yield (40 h) was 75.9 ± 1.6% and the growth yield (72 h) was 93.5 ± 1.5%.
For `CCC1(c2ccc(N)cc2)CCC(=O)NC1=O` (stereo unspecified) [Glutethimide, para-amino] + CCCCNC(=O)OCC#CI [3-iodo-2-propynyl butylcarbamate (IPBC)], the growth yield (40 h) was 111 ± 4.1% and the growth yield (72 h) was 112 ± 4.5%.
For `CC1Cc2ccccc2N1NC(=O)c1ccc(Cl)c(S(N)(=O)=O)c1` (stereo unspecified) [Indapamide] + CCCCNC(=O)OCC#CI [3-iodo-2-propynyl butylcarbamate (IPBC)], the growth yield (40 h) was 87.2 ± 0.16% and the growth yield (72 h) was 95.4%.
Work on `CCN(C)C(=O)Oc1cccc([C@H](C)N(C)C)c1` [Rivastigmine] + CCCCNC(=O)OCC#CI [3-iodo-2-propynyl butylcarbamate (IPBC)] yielded a growth yield (40 h) of 97.1 ± 4% and a growth yield (72 h) of 95.1 ± 3.7%.
In the case of `Nc1ccc(S(=O)(=O)Nc2ccnn2-c2ccccc2)cc1` [Sulfaphenazole] + CCCCNC(=O)OCC#CI [3-iodo-2-propynyl butylcarbamate (IPBC)], the growth yield (40 h) is reported as 95.5 ± 2.4% and the growth yield (72 h) is reported as 99.53 ± 0.1%.
Compound `CC[C@@]1([C@@H]2O[C@@H]([C@H]3O[C@@](O)(CO)[C@H](C)C[C@@H]3C)C[C@@H]2C)CC[C@H]([C@]2(C)CC[C@]3(C[C@H](O)[C@@H](C)[C@@H]([C@@H](C)[C@@H](OC)[C@H](C)C(=O)O)O3)O2)O1` [Monensin sodium salt] + CCCCNC(=O)OCC#CI [3-iodo-2-propynyl butylcarbamate (IPBC)] has a growth yield (40 h) of 79.4 ± 9.8% and a growth yield (72 h) of 89.6 ± 9.2%.
`CCN1CCN(c2cc3c(cc2F)c(=O)c(C(=O)O)cn3C2CC2)CC1` [Enrofloxacin] + CCCCNC(=O)OCC#CI [3-iodo-2-propynyl butylcarbamate (IPBC)] was tested, and the growth yield (40 h) was 85 ± 2.4% and the growth yield (72 h) was 86.1 ± 2.2%.
Work on `Cc1cnc(NC(=O)C2=C(O)c3ccccc3S(=O)(=O)N2C)s1` [Meloxicam] + CCCCNC(=O)OCC#CI [3-iodo-2-propynyl butylcarbamate (IPBC)] yielded a growth yield (40 h) of 63.4 ± 0.79% and a growth yield (72 h) of 88.2 ± 0.1%.
`CN1[C@@H]2CC[C@H]1C[C@@H](OC1c3ccccc3CCc3ccccc31)C2` [Deptropine citrate] + CCCCNC(=O)OCC#CI [3-iodo-2-propynyl butylcarbamate (IPBC)] showed a growth yield (40 h) of 63.9 ± 1.3% and a growth yield (72 h) of 86.8 ± 1.1%.
Compound `O=C(O)/C=C/c1ccc(Cn2ccnc2)cc1` [Ozagrel hydrochloride] + CCCCNC(=O)OCC#CI [3-iodo-2-propynyl butylcarbamate (IPBC)] has a growth yield (40 h) of 105 ± 12% and a growth yield (72 h) of 103 ± 8.7%.
